# Measurements reported in the BET-seq Pho4 binding data (Le et al. 2018).
# This is one part of the list. Values were computed here from the reads of four pooled replicates and scatter widely.
# Molecular target: T1, Pho4 (S. cerevisiae) (UniProt P07270)
# T1 sequence: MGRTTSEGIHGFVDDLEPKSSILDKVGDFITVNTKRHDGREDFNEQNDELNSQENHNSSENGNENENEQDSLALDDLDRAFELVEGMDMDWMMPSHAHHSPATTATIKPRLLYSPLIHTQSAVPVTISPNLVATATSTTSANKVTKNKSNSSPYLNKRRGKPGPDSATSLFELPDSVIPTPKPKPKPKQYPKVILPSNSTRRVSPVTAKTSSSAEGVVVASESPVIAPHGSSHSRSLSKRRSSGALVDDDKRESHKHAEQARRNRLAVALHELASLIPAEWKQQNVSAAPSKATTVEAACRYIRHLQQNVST
# Assay: relative binding free energy (BET-seq); higher = weaker binding
# Settings: reference: library average
row,Sequence,relative binding free energy [kcal/mol]
1,TATGGCACGTGTGGAA,-0.04
2,ATGGTCACGTGCGGTC,0.07
3,GGTTGCACGTGAGTAT,0.19
4,CTGAACACGTGGGTGG,-0.05
5,GCGCACACGTGTTGGT,0.14
6,TGTCACACGTGTGTTG,0.04
7,CAGTGCACGTGGTCGG,-0.06
8,ACTTGCACGTGAGTTT,0.08
9,CGAGTCACGTGACTGG,0.26
10,TGGCTCACGTGGGTGG,0.13
11,TTTGGCACGTGTGAAG,0.1
12,CGGTGCACGTGGGCGA,-0.18
13,ATTGGCACGTGCGGAA,-0.18
14,CGGGTCACGTGTCCGG,0.1
15,TGCTTCACGTGTGTTG,0.23
16,TTGGTCACGTGATTGT,0.17
17,TTTTTCACGTGTATTG,0.27
18,ATTCGCACGTGGTGTT,-0.24
19,GCATGCACGTGTTTGG,-0.01
20,GGCTTCACGTGATTAT,0.52
21,TATTACACGTGTATGG,0.16
22,ATAATCACGTGAGAGG,0.19
23,GGGGGCACGTGTCTTT,-0.23

row,Sequence,relative binding free energy [kcal/mol]
1,TGTTTCACGTGAATTC,0.5
2,ATTTCCACGTGGGGCG,-0.1
3,TATATCACGTGGCGGT,0.08
4,TGTCCCACGTGGGGTG,-0.29
5,TACCGCACGTGTGGGG,0.03
6,TGAGTCACGTGGAGAG,0.16
7,AAAGGCACGTGGTGTC,-0.15
8,ATTGTCACGTGAACGG,0.25
9,CTTGGCACGTGATATA,0.02
10,ACTTTCACGTGTCTGG,0.46
11,GAGTTCACGTGGATTG,0.22
12,ATGGGCACGTGATACT,0.03
13,GGCGGCACGTGTTTTA,-0.08
14,ATTTGCACGTGGCGTC,-0.01
15,TCAGACACGTGTTGTG,0.05
16,CATATCACGTGGGGGT,0.04
17,CTGGGCACGTGAGGAT,0.1
18,CCTTGCACGTGTATGT,0.11
19,TTGGGCACGTGGGGAC,-0.17
20,GGTATCACGTGAATGT,0.2
21,TTTATCACGTGTAGTT,0.19
22,AAGTACACGTGGTGTG,-0.03
23,GCGATCACGTGTTGGA,0.24

row,Sequence,relative binding free energy [kcal/mol]
1,TGTTTCACGTGGTGAT,0.25
2,CTGGTCACGTGGAAGG,0.2
3,TTCGTCACGTGGGTTG,0
4,GGGGGCACGTGAGAAA,0.12
5,GGATGCACGTGGTTAC,0.09
6,GGGGACACGTGCAAGT,0.04
7,AGAGTCACGTGGTTTA,-0.01
8,ATGTTCACGTGGTCCG,0.24
9,GTGCGCACGTGAGGCG,0.18
10,GAAGGCACGTGTCGGG,-0.01
11,TTTCGCACGTGAGAGA,0.35
12,TTATTCACGTGGACAG,0.22
13,TATTTCACGTGTTGTA,0.12
14,GTGAGCACGTGGCTGG,-0.09
15,TCTTACACGTGATTTG,0.14
16,ATAGGCACGTGGAGAA,-0.02
17,GTGGGCACGTGAATGG,0.15
18,GTTATCACGTGAAGAG,0.38
19,TGAGTCACGTGCGTGT,0.05
20,GCAGTCACGTGTGGTA,0.23
21,TATTGCACGTGGGATC,-0.1
22,GACAGCACGTGGTGGT,-0.18
23,AGCGACACGTGGGGTG,-0.15

row,Sequence,relative binding free energy [kcal/mol]
1,GTGCGCACGTGGTGCG,-0.2
2,TAAGTCACGTGGCTGG,0.06
3,TTGCTCACGTGGAATT,0.35
4,GTACGCACGTGGTGCG,-0.03
5,GTGCGCACGTGGGTAG,-0.25
6,ATTAGCACGTGAGATG,0.32
7,GAACGCACGTGTGGTG,-0.07
8,GAGAGCACGTGTATGT,-0.1
9,TGGGTCACGTGATTCT,0.28
10,TGCTACACGTGAGTGG,0.19
11,GGAATCACGTGTATTT,0.25
12,TTGGTCACGTGGAAGC,0.14
13,ATGAGCACGTGAGCGG,0
14,AATTCCACGTGGTTGG,0.11
15,TAAAGCACGTGGTGTT,-0.26
16,CGTTTCACGTGAGTGC,0.32
17,AAGGCCACGTGGTGTA,-0.05
18,TGCGTCACGTGTGATG,0.14
19,GGCTGCACGTGGGGGT,-0.13
20,TTGGACACGTGGTTAG,0.08
21,AGTTACACGTGTATTA,0.05
22,TATATCACGTGATCGG,0.14
23,TCCGTCACGTGGATGT,0.07

row,Sequence,relative binding free energy [kcal/mol]
1,TGTCGCACGTGCTGTG,-0.12
2,CTAGTCACGTGTAGTG,0.05
3,TGAAACACGTGGGGCG,-0.13
4,CCGTGCACGTGGGAGT,-0.08
5,GTTTACACGTGGTTGA,0.16
6,TCGTGCACGTGTGTTG,0.01
7,TAAGGCACGTGTGTTA,-0.06
8,GGAGTCACGTGTGTGA,0.04
9,TATCTCACGTGGTGGG,0.16
10,GGGGGCACGTGGATAC,-0.11
11,GATGTCACGTGGTGGC,0.1
12,TGATGCACGTGCAGTA,-0.02
13,TGTTGCACGTGGCCGT,-0.03
14,GAGGTCACGTGGACGT,0.16
15,TGATTCACGTGCAGTG,0.22
16,GGTTTCACGTGATGAT,0.29
17,GGGTCCACGTGTAGTA,0.17
18,GTTACCACGTGGTTTA,0
19,TTGTTCACGTGCGCTT,0.12
20,TGTATCACGTGGGCAT,0.04
21,ACTCGCACGTGTAGGT,0
22,GATATCACGTGTTAGA,0.34
23,TTTTTCACGTGCGGTT,0.28
